Results taken from PubChem BioAssay AID686978 (National Center for Advancing Translational Sciences (NCATS), 2013).
About 64,000 (15%) of roughly 420,000 compounds were called active. Inconclusive results, whose numbers are uncertain, are shown with a selection of clear calls. Calls come from the whole dose curve; as a rule, active = well fitted inhibition curve with a large enough effect; inconclusive = small, poorly fitted or top-dose-only effect; inactive = flat fitted curve, though single readings scatter. No potency is given beside an inconclusive call; the fits are too rough.

Test: qHTS for Inhibitors of human tyrosyl-DNA phosphodiesterase 1 (TDP1): qHTS in cells in absence of CPT; note: nearly all actives have a fitted effect of over 55% in size
Conditions: DT40 Tdp1-/- hTDP1 cells, no CPT, ATP luminescence, 48 h; series mostly up to 46.2 µM
Method in brief: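 Cells were dispensed at 400 per well, compounds added by pin tool, plates incubated ≥48 hr at 37 °C, then CellTiter-Glo added for 30 min at room temperature before luminescence reading. Line: DT40 Tdp1-/- complemented with hTDP1; camptothecin omitted.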
Potency is the fitted concentration of half-maximal effect; tags give direction and shape of the fitted curve.

Q: With `COc1cccc(Oc2cn[nH]c2-c2ccc(OCC(=O)NN)cc2O)c1` as the molecule, how does the Potency read?
A: inconclusive [inhibitor, partial curve]

Q: For `CCc1ccc(NC(=O)CCc2nnc3ccc(N4CCCC4)nn23)cc1`, which Potency is on record?
A: inconclusive [inhibitor, single point]

Q: With `CCn1c(CSCc2ccc(C)cc2)nnc1SCC(=O)N1CCN(c2ccccc2)CC1` as the molecule, how does the Potency read?
A: active: 20.6 µM

Q: For `CC(C)NC(=S)N/N=C/c1ccccc1[N+](=O)[O-]`, which Potency is on record?
A: inconclusive [inhibitor, single point]

Q: Which Potency does the source give for `Cc1cccc(NS(=O)(=O)c2ccc3c(c2)CCCN3C(=O)C2CCC2)c1C` here?
A: inconclusive [inhibitor, single point]

Q: Which Potency does the source give for `CCn1c(O)c(N=NC(=O)CNC(=O)Cc2ccccc2)c2ccccc21` here?
A: inactive

Q: For `O=C(CSc1ccc2nnc(CCNC(=O)c3ccccc3)n2n1)NC1CCCC1`, which Potency is on record?
A: inactive

Q: With `Cc1c(Cl)cccc1NC(=S)NCC(c1cccnc1)N(C)C` (stereo not given) as the molecule, how does the Potency read?
A: inactive

Q: With `COc1ccc(C(CNC(=O)COc2ccccc2-c2ccccc2)N2CCOCC2)cc1` (stereo not given) as the molecule, how does the Potency read?
A: inconclusive [inhibitor, single point]

Q: For `O=C(COC(=O)c1c2c(nc3ccccc13)CCCC2)c1ccc(Br)s1`, which Potency is on record?
A: active: 7.31 µM

Q: With `COc1cc(CNc2ccc3[nH]c(=O)[nH]c3c2)cc(Cl)c1OCc1ccc(F)cc1` as the molecule, how does the Potency read?
A: active: 14.6 µM

Q: With `Cc1nn(C(C)(C)C)c(OC(=O)c2c(F)cccc2F)c1Sc1ccccc1` as the molecule, how does the Potency read?
A: inconclusive [inhibitor, partial curve]

Q: For `Cc1cccc(C(=O)Nc2ccccc2OCc2cc(=O)n3c(C)csc3n2)c1`, which Potency is on record?
A: inactive

Q: With `O=C(Nc1ccc(C(=O)OCc2cc(=O)n3c4c(sc3n2)CCCC4)cc1)c1cccc(F)c1` as the molecule, how does the Potency read?
A: inconclusive [inhibitor, single point]

Q: With `C=CCNCc1cc(=O)n2c(-c3ccccc3)csc2n1` as the molecule, how does the Potency read?
A: inactive

Q: Which Potency does the source give for `Cc1cccc(-c2cc3nc4c(c(N5CCOCC5)n3n2)CCCC4)c1` here?
A: active: 23.1 µM

Q: With `C/C(N)=C(/C#N)C(=O)CSc1nc2ccccc2c(=O)n1CCCOC(C)C` as the molecule, how does the Potency read?
A: active: 23.1 µM

Q: With `S=C(Nc1cccc(Cl)c1Cl)N1CCC2(CC1)OCCO2` as the molecule, how does the Potency read?
A: inactive

Q: Which Potency does the source give for `O=C(COC(=O)c1cnccn1)c1ccc(Cl)c([N+](=O)[O-])c1` here?
A: inconclusive [inhibitor, single point]

Q: With `O=C(c1ccccc1)n1c(=S)nc2ccccn21` as the molecule, how does the Potency read?
A: inconclusive [inhibitor, partial curve]

Q: For `Cc1noc(/C=C/c2ccccc2F)c1S(=O)(=O)N1CCC(C(=O)N2CCN(C)CC2)CC1`, which Potency is on record?
A: inconclusive [inhibitor, single point]

Q: Which Potency does the source give for `CCCCn1nnnc1NCc1cc(OC)c(OC)c(OC)c1` here?
A: inactive

Q: For `Cc1cccn2c(Nc3ccccc3)c(-c3ccccn3)nc12`, which Potency is on record?
A: active: 20.6 µM

Q: For `CS(=O)(=O)N1CCC[C@@]2(CCN(c3ccccc3)C2)C1`, which Potency is on record?
A: inconclusive [inhibitor, single point]

Q: With `COc1cccc(N2CCN(C(=O)c3cc(-c4ccccc4)nc4c3cnn4C(C)C)CC2)c1` as the molecule, how does the Potency read?
A: inconclusive [inhibitor, single point]

Q: For `Cc1csc2nc(-c3cccc(NC(=O)c4c(F)cccc4F)c3)cn12`, which Potency is on record?
A: active: 23.1 µM

Q: With `Cn1c(SC(C(=O)Nc2ccc(F)cc2)c2ccccc2)nc2ccccc21` (stereo not given) as the molecule, how does the Potency read?
A: inconclusive [inhibitor, single point]

Q: Which Potency does the source give for `COc1ccc(-c2oc3ccc(-c4ccc5c(c4)OCO5)cc3c2C#CC2(O)CCCCC2)cc1` here?
A: inconclusive [inhibitor, single point]

Q: For `CC(C)(C)NC(=O)CC(CC(=O)O)c1ccccc1` (stereo not given), which Potency is on record?
A: inactive

Q: For `O=C(CSc1nnc(-c2ccc(Cl)cc2)n1Cc1ccco1)Nc1ccc2c(c1)OCCO2`, which Potency is on record?
A: inconclusive [inhibitor, partial curve]

Q: For `COc1ccc2nc(-c3ccccc3)cc(C(=O)OCC(=O)N3CCCCC3)c2c1`, which Potency is on record?
A: inconclusive [inhibitor, single point]

Q: For `CN(C)c1ccc(/C=C/c2ccnc3ccc4ccccc4c23)cc1`, which Potency is on record?
A: active: 0.126 µM

Q: With `CCC(C)Sc1ccc(-c2nc3ccc(C)cn3c2NCc2ccccc2)cc1` (stereo not given) as the molecule, how does the Potency read?
A: active: 16.4 µM

Q: Which Potency does the source give for `COc1ccc([N+](=O)[O-])c2c(=O)ccoc12` here?
A: inconclusive [inhibitor, single point]

Q: For `CCOC(=O)C1=CCN(S(=O)(=O)c2ccccc2Cl)C1c1cccc(Br)c1` (stereo not given), which Potency is on record?
A: inconclusive [inhibitor, single point]

Q: With `Cc1ccc(C(C)C)cc1NC(=O)Nc1ccc([N+](=O)[O-])cc1` as the molecule, how does the Potency read?
A: active: 3.66 µM

Q: Which Potency does the source give for `COc1ccc(NC(=O)C2CCCN2S(=O)(=O)c2ccc(F)cc2)cc1` (stereo not given) here?
A: inconclusive [inhibitor, single point]

Q: With `COc1cc2c3nnc(-c4ccccc4)c-3cn(Cc3ccc(F)cc3)c2cc1OC` as the molecule, how does the Potency read?
A: active: 14.6 µM

Q: For `O=C(O)c1ccccc1-c1ccccc1C(=O)Nc1ccc2c(c1)C(=O)c1ccccc1-2`, which Potency is on record?
A: inconclusive [inhibitor, single point]

Q: Which Potency does the source give for `C=CCn1c(SCC(=O)NC2CCCC2)nc2sc(C)cc2c1=O` here?
A: inconclusive [inhibitor, partial curve, poor fit]

Q: For `CN(C1CCCCC1)S(=O)(=O)c1ccc(NC(=O)c2ccc(Br)o2)cc1`, which Potency is on record?
A: inconclusive [inhibitor, single point]

Q: Which Potency does the source give for `CCOc1ccc(Nc2c3c(nc4nncn24)CCC3)cc1` here?
A: inconclusive [inhibitor, single point]

Q: Which Potency does the source give for `CC(=O)N(CCc1cccc(C)c1)Cc1cc2cc(C)ccc2[nH]c1=O` here?
A: inconclusive [inhibitor, partial curve, poor fit]

Q: Which Potency does the source give for `Cc1ccc(Cc2c(-c3ccc(C)cc3)nc3ccc(Cl)cn23)cc1` here?
A: inconclusive [inhibitor, single point]

Q: With `CCOC(=O)Cn1nc(-c2ccccc2)c2cnc3ccc(CC)cc3c21` as the molecule, how does the Potency read?
A: inconclusive [inhibitor, partial curve]
